Experimental data published in the CheMixHub viscosity set.
The source gives many values for each of these; only a part stands here.

Assay: xn = mol fraction of the nth substance listed

NC=O + CCCO
101 kPa
Conditions	viscosity [mPa·s]
293.15 K, x1 = 0.3469	2.612
293.15 K, x1 = 0.4434	2.871
293.15 K, x1 = 0.5534	3.132
293.15 K, x1 = 0.68	3.365
293.15 K, x1 = 0.827	3.558
293.15 K, x1 = 0.8832	3.612
293.15 K, x1 = 0.9328	3.642
298.1 K, x1 = 0.0714	1.935
298.1 K, x1 = 0.129	1.987
298.1 K, x1 = 0.2505	2.223
298.1 K, x1 = 0.3639	2.396
298.1 K, x1 = 0.4709	2.622
298.1 K, x1 = 0.5717	2.79
298.1 K, x1 = 0.6672	2.985
298.1 K, x1 = 0.7574	3.122
298.1 K, x1 = 0.8366	3.233
298.1 K, x1 = 0.9134	3.27
298.15 K, x1 = 0.3469	2.376
298.15 K, x1 = 0.4434	2.629
298.15 K, x1 = 0.5534	2.872
298.15 K, x1 = 0.68	3.09
298.15 K, x1 = 0.827	3.266
298.15 K, x1 = 0.8832	3.314
298.15 K, x1 = 0.9328	3.336
303.15 K, x1 = 0.3469	2.161
303.15 K, x1 = 0.4434	2.396
303.15 K, x1 = 0.5534	2.611
303.15 K, x1 = 0.68	2.806
303.15 K, x1 = 0.827	2.963
303.15 K, x1 = 0.8832	2.996
303.15 K, x1 = 0.9328	3.008
308.15 K, x1 = 0.3469	2.001
308.15 K, x1 = 0.4434	2.205
308.15 K, x1 = 0.5534	2.389
308.15 K, x1 = 0.68	2.559
308.15 K, x1 = 0.827	2.69
308.15 K, x1 = 0.8832	2.72
308.15 K, x1 = 0.9328	2.724
313.15 K, x1 = 0.3469	1.801
313.15 K, x1 = 0.4434	1.992
313.15 K, x1 = 0.5534	2.168
313.15 K, x1 = 0.68	2.332
313.15 K, x1 = 0.827	2.462
313.15 K, x1 = 0.8832	2.491
313.15 K, x1 = 0.9328	2.495
318.15 K, x1 = 0.2615	1.483
318.15 K, x1 = 0.3469	1.689
318.15 K, x1 = 0.4434	1.867
318.15 K, x1 = 0.5534	2.031
318.15 K, x1 = 0.68	2.184
318.15 K, x1 = 0.827	2.306
318.15 K, x1 = 0.8832	2.335
318.15 K, x1 = 0.9328	2.332

NC=O + CCO
viscosity [mPa·s], 101 kPa
Conditions	x1 = 0.1412	x1 = 0.2032	x1 = 0.268	x1 = 0.3874	x1 = 0.4962	x1 = 0.5958	x1 = 0.708	x1 = 0.7748	x1 = 0.8532	x1 = 0.9282
293.15 K	1.334	1.427	1.555	1.822	2.091	2.349	2.66	2.857	3.106	3.368
298.15 K	1.23	1.312	1.423	1.663	1.906	2.143	2.426	2.609	2.838	3.076
303.15 K	1.118	1.189	1.283	1.495	1.709	1.92	2.172	2.34	2.547	2.752
308.15 K	1.012	1.075	1.157	1.342	1.532	1.72	1.951	2.098	2.284	2.463
313.15 K	0.9327	0.9875	1.061	1.223	1.393	1.563	1.773	1.905	2.072	2.239
318.15 K	0.862	0.916	0.982	1.131	1.286	1.442	1.636	1.762	1.916	2.067

COC(=O)OC + CO
101.3 kPa
Conditions	viscosity [mPa·s]
303.15 K, x1 = 0.6832	0.48
303.15 K, x1 = 0.8119	0.496
303.15 K, x1 = 0.8969	0.512
303.15 K, x1 = 0.9581	0.525
313.15 K, x1 = 0.0648	0.437
313.15 K, x1 = 0.1008	0.434
313.15 K, x1 = 0.1978	0.428
313.15 K, x1 = 0.3027	0.426
313.15 K, x1 = 0.3928	0.428
313.15 K, x1 = 0.4855	0.429
313.15 K, x1 = 0.5738	0.437
313.15 K, x1 = 0.7009	0.444
313.15 K, x1 = 0.7838	0.451
313.15 K, x1 = 0.9029	0.471
313.15 K, x1 = 0.9283	0.476

NC=O + O
viscosity [mPa·s], 101 kPa
Conditions	293.15 K	303.15 K	313.15 K	323.15 K
x1 = 0.0753	–	0.886	0.734	0.621
x1 = 0.1519	–	0.973	0.811	0.688
x1 = 0.2309	–	1.073	0.898	0.788
x1 = 0.2959	–	1.182	0.988	0.84
x1 = 0.3852	–	1.306	1.089	0.924
x1 = 0.4854	1.814	1.473	1.227	1.042
x1 = 0.5652	2.035	1.631	1.353	1.144
x1 = 0.6138	2.162	1.743	1.441	1.22
x1 = 0.6924	2.401	1.932	1.586	1.343
x1 = 0.7676	2.692	2.145	1.757	1.477
x1 = 0.8175	2.93	2.313	1.891	1.574
x1 = 0.9254	3.418	2.661	2.155	1.784

O=C([O-])c1ccccc1O.[Na+] + O
viscosity [mPa·s], 101 kPa
Conditions	x1 = 0.000472	x1 = 0.000925	x1 = 0.00135	x1 = 0.0018	x1 = 0.00224	x1 = 0.002647	x1 = 0.003578	x1 = 0.005317	x1 = 0.007012
298.15 K	–	–	–	–	–	–	0.9644	0.9997	1.034
303.15 K	0.8064	0.8145	0.822	0.8299	0.8377	0.8449	0.8611	0.8912	0.9202
308.15 K	0.727	0.734	0.7405	0.7472	0.7539	0.7598	0.774	0.7998	0.8245
313.15 K	0.6596	0.6658	0.6714	0.6771	0.6828	0.688	0.6999	0.7222	0.7436
318.15 K	0.6033	0.6087	0.6135	0.6185	0.6234	0.6279	0.638	0.657	0.6754
